Among the data in publication PMC9911399, “Two distinct binding modes provide the RNA-binding protein RbFox with extraordinary sequence specificity” are binding signal values, retold here.

Positions count from the first letter of the chain named. Some of the results follow.

T1: RBFOX1 RRM RbFoxmut (Fox-RRM*) (Homo sapiens, UniProt Q9NWB1 109-208, R118D;E147R;N151S;E152T)
T1 sequence: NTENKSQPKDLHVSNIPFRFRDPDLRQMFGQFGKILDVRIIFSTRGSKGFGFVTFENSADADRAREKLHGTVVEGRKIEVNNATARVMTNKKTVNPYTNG

B1: UUCAUGG (DNA:RNA)
RNA: GGGAGACCGGAAUUCAGAUUGUCCUUCAUGGUUAAAUCCCGUCGUAGCCACCA
DNA 1: CAATCTGAATTCCGGTCTCCC
DNA 2: TGGTGGCTACGACGGGATT
B2: UUUCCGC (DNA:RNA)
RNA: B1 RNA with C27U, A28C, U29C, G31C
DNA 1: CAATCTGAATTCCGGTCTCCC
DNA 2: TGGTGGCTACGACGGGATT
B3: AACCUUC (DNA:RNA)
RNA: B1 RNA with U25A, U26A, A28C, G30U, G31C
DNA 1: CAATCTGAATTCCGGTCTCCC
DNA 2: TGGTGGCTACGACGGGATT
B4: ACUCGAG (DNA:RNA)
RNA: B1 RNA with U25A, U26C, C27U, A28C, U29G, G30A
DNA 1: CAATCTGAATTCCGGTCTCCC
DNA 2: TGGTGGCTACGACGGGATT
B5: UCAUCAG (DNA:RNA)
RNA: B1 RNA with U26C, C27A, A28U, U29C, G30A
DNA 1: CAATCTGAATTCCGGTCTCCC
DNA 2: TGGTGGCTACGACGGGATT
B6: UGGCGGC (DNA:RNA)
RNA: B1 RNA with U26G, C27G, A28C, U29G, G31C
DNA 1: CAATCTGAATTCCGGTCTCCC
DNA 2: TGGTGGCTACGACGGGATT
B7: CGCCCCA (DNA:RNA)
RNA: B1 RNA with U25C, U26G, A28C, U29C, G30C, G31A
DNA 1: CAATCTGAATTCCGGTCTCCC
DNA 2: TGGTGGCTACGACGGGATT
B8: CCAUACU (DNA:RNA)
RNA: GGGAGACCGGAAUUCAGAUUGUCCCCAUACUUUAAAUCCCGUCGUAGCCACCA
DNA 1: CAATCTGAATTCCGGTCTCCC
DNA 2: TGGTGGCTACGACGGGATT
B9: GCCCCAA (DNA:RNA)
RNA: B8 RNA with C25G, A27C, U28C, A29C, C30A, U31A
DNA 1: CAATCTGAATTCCGGTCTCCC
DNA 2: TGGTGGCTACGACGGGATT
B10: AAGGUGA (DNA:RNA)
RNA: B1 RNA with U25A, U26A, C27G, A28G, G31A
DNA 1: CAATCTGAATTCCGGTCTCCC
DNA 2: TGGTGGCTACGACGGGATT
B11: CGGGGUA (DNA:RNA)
RNA: B8 RNA with C26G, A27G, U28G, A29G, C30U, U31A
DNA 1: CAATCTGAATTCCGGTCTCCC
DNA 2: TGGTGGCTACGACGGGATT
B12: AGUCCUU (DNA:RNA)
RNA: B8 RNA with C25A, C26G, A27U, U28C, A29C, C30U
DNA 1: CAATCTGAATTCCGGTCTCCC
DNA 2: TGGTGGCTACGACGGGATT
B13: CAUACUU (DNA:RNA)
RNA: B8 RNA with C26A, A27U, U28A, A29C, C30U
DNA 1: CAATCTGAATTCCGGTCTCCC
DNA 2: TGGTGGCTACGACGGGATT
B14: UAGUAGA (DNA:RNA)
RNA: B8 RNA with C25U, C26A, A27G, C30G, U31A
DNA 1: CAATCTGAATTCCGGTCTCCC
DNA 2: TGGTGGCTACGACGGGATT
B15: UUAACAC (DNA:RNA)
RNA: B1 RNA with C27A, U29C, G30A, G31C
DNA 1: CAATCTGAATTCCGGTCTCCC
DNA 2: TGGTGGCTACGACGGGATT
B16: CGCUUGA (DNA:RNA)
RNA: B1 RNA with U25C, U26G, A28U, G31A
DNA 1: CAATCTGAATTCCGGTCTCCC
DNA 2: TGGTGGCTACGACGGGATT
B17: GCCCUGG (DNA:RNA)
RNA: B1 RNA with U25G, U26C, A28C
DNA 1: CAATCTGAATTCCGGTCTCCC
DNA 2: TGGTGGCTACGACGGGATT
B18: CAGGAAC (DNA:RNA)
RNA: B8 RNA with C26A, A27G, U28G, C30A, U31C
DNA 1: CAATCTGAATTCCGGTCTCCC
DNA 2: TGGTGGCTACGACGGGATT
B19: CUAUGUA (DNA:RNA)
RNA: B8 RNA with C26U, A29G, C30U, U31A
DNA 1: CAATCTGAATTCCGGTCTCCC
DNA 2: TGGTGGCTACGACGGGATT
B20: UAAGUUC (DNA:RNA)
RNA: B1 RNA with U26A, C27A, A28G, G30U, G31C
DNA 1: CAATCTGAATTCCGGTCTCCC
DNA 2: TGGTGGCTACGACGGGATT

In the test the target is T1, RBFOX1 RRM RbFoxmut (Fox-RRM*). Kind of test: EMSA; HiTS-Eq, 1 nM pool, 10 min; buffer printed only for the single-RNA assays: 10 mM Tris pH 7.5, 150 mM NaCl, 3.4 mM EDTA, 0.001% NP-40, 30 C. As to conditions: tags: His6 N-terminal (pET28a); label: 5' 32P. In a few lines: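 Relative association constants, normalised to the cognate motif, were derived by comparing read counts of each RNA species with those of the control reaction. The RNA sequenced was the free fraction, separated by 8% native PAGE after a 10 min equilibration in 50 µL of 1 nM 5′-radiolabelled RNA (7 randomized nucleotides) with increasing concentrations of purified wild-type or mutant RbFox RRM.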
Turning to B1, the binding signal was 0.098 KA relative to UGCAUGU. As to B2, the binding signal is 0.108 KA relative to UGCAUGU.

On to B3, for which the binding signal is 0.0273 KA relative to UGCAUGU. For the molecule B4, the binding signal was 0.132 KA relative to UGCAUGU. As for B5, the figure is 0.0892 KA relative to UGCAUGU; as for B6, 0.0959 KA relative to UGCAUGU; as for B7, 0.0612 KA relative to UGCAUGU.

Consider B8, for which the binding signal is 0.0898 KA relative to UGCAUGU. Regarding B9, the binding signal is 0.0964 KA relative to UGCAUGU. The figure for B10 is 0.0987 KA relative to UGCAUGU. In the case of B11, the binding signal was 0.156 KA relative to UGCAUGU. In the case of B12, the binding signal was 0.0798 KA relative to UGCAUGU. As for B13, the binding signal was 0.129 KA relative to UGCAUGU. The figure for B14 is 0.119 KA relative to UGCAUGU. For B15, the binding signal is 0.0924 KA relative to UGCAUGU.

Turning to B16, the binding signal was 0.196 KA relative to UGCAUGU. As for B17, the figure is 0.0853 KA relative to UGCAUGU; as for B18, 0.0847 KA relative to UGCAUGU; as for B19, 0.198 KA relative to UGCAUGU. Take B20: the binding signal was 0.0634 KA relative to UGCAUGU.
